Reference: the BET-seq Pho4 binding data (Le et al. 2018)
The list shows a part of the results. Values were computed here from the reads of four pooled replicates and scatter widely.

These sequences were tested against T1, Pho4 (S. cerevisiae) (UniProt P07270) (assay: relative binding free energy (BET-seq); higher = weaker binding). Settings: reference: library average.
T1 sequence: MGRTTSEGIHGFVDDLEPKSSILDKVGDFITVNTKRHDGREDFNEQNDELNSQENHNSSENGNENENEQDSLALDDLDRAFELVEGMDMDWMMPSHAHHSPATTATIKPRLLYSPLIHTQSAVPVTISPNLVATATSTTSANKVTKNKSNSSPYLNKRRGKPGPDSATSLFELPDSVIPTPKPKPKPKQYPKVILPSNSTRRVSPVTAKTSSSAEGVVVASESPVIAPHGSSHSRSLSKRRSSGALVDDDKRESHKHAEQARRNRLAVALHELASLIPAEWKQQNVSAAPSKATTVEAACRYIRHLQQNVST

Sequence | relative binding free energy
GTCAGCACGTGAAGTG | 0.26 kcal/mol
TGAAGCACGTGTATAT | 0.03 kcal/mol
ATAATCACGTGATATA | 0.29 kcal/mol
CTAGGCACGTGGCGGG | -0.2 kcal/mol
TGCTTCACGTGTTTTA | 0.19 kcal/mol
GTCTGCACGTGGGAGT | -0.08 kcal/mol
TATAGCACGTGTCTTG | -0.08 kcal/mol
ATTGGCACGTGTGGCA | -0.18 kcal/mol
TGTACCACGTGCGTTG | -0.06 kcal/mol
AGATTCACGTGTTTCG | 0.16 kcal/mol
TTGAACACGTGAGTGA | 0.32 kcal/mol
AGTATCACGTGCAAGT | 0.22 kcal/mol
CGGGTCACGTGAGATG | 0.41 kcal/mol
TTGCTCACGTGTGGGT | 0.14 kcal/mol
GAATGCACGTGTGAGT | -0.05 kcal/mol
ATGGCCACGTGGGTTT | -0.18 kcal/mol
AGGTACACGTGCGGGA | -0.02 kcal/mol
GGAGCCACGTGTGATG | -0.01 kcal/mol
GTAAGCACGTGTGTGG | 0.06 kcal/mol
AGTATCACGTGTTCTG | 0.04 kcal/mol
GAGCACACGTGGAGGT | 0.15 kcal/mol
CGAGTCACGTGTGATG | 0.13 kcal/mol
GGATTCACGTGGTTGA | 0.29 kcal/mol
AAGGGCACGTGGAGGC | -0.27 kcal/mol
GGGGTCACGTGTTCTA | 0.29 kcal/mol

Sequence | relative binding free energy
CGTCTCACGTGTAGGG | -0.03 kcal/mol
TGTGCCACGTGTTGGT | -0.17 kcal/mol
GTAAGCACGTGGTGTG | -0.18 kcal/mol
GCGGCCACGTGTGGAT | 0.11 kcal/mol
AGGTCCACGTGGTAGT | -0.09 kcal/mol
TAGTGCACGTGCAAGT | -0.1 kcal/mol
TAATACACGTGGTGTA | -0.06 kcal/mol
GGTGACACGTGGGAGA | -0.09 kcal/mol
CTGGGCACGTGTGCTT | -0.15 kcal/mol
ACTGGCACGTGGTATG | -0.29 kcal/mol
TAGTACACGTGTTTGG | 0.08 kcal/mol
GGGTGCACGTGGAAGC | -0.07 kcal/mol
TTTCTCACGTGTCTGT | 0.14 kcal/mol
GAGGTCACGTGAGTGT | 0.39 kcal/mol
GTGTCCACGTGGGGGT | -0.07 kcal/mol
GATATCACGTGGCGGT | 0.14 kcal/mol
TTGTTCACGTGTGTAG | 0.26 kcal/mol
TGTCGCACGTGGCTAT | -0.11 kcal/mol
AAGTTCACGTGGACTA | 0.53 kcal/mol
GGTTTCACGTGCTCGT | 0.4 kcal/mol
TCAAGCACGTGGTAGG | -0.19 kcal/mol
TGGTTCACGTGGAAGA | 0.38 kcal/mol
GGTCTCACGTGTTGTA | 0.34 kcal/mol
TGTGTCACGTGTGTTC | 0.16 kcal/mol
CTTTTCACGTGATTCT | 0.28 kcal/mol

Sequence | relative binding free energy
CGTGTCACGTGCTGGA | 0 kcal/mol
TAATGCACGTGGGGCT | -0.16 kcal/mol
CTAGACACGTGGTGGT | -0.15 kcal/mol
AGGTGCACGTGCGGGA | -0.09 kcal/mol
TAGTACACGTGGCGGT | -0.1 kcal/mol
TTTAACACGTGGGTCA | -0.22 kcal/mol
ATTAACACGTGTTTAA | -0.04 kcal/mol
GAGTGCACGTGAGGAT | 0.32 kcal/mol
GGGGTCACGTGGTTTC | 0.2 kcal/mol
ATGTTCACGTGGGATT | 0.3 kcal/mol
GAAGTCACGTGATGGA | 0.36 kcal/mol
GTGGTCACGTGAGCGC | 0.36 kcal/mol
AAGGGCACGTGTATGG | -0.12 kcal/mol
AGCAGCACGTGGGAGT | -0.12 kcal/mol
TTAATCACGTGATGGT | 0.18 kcal/mol
TGAGTCACGTGTAGTG | 0.17 kcal/mol
GAAGGCACGTGGTTCG | -0.08 kcal/mol
CATGCCACGTGGGTTT | -0.19 kcal/mol
ATGAACACGTGTATGG | -0.08 kcal/mol
GGGACCACGTGAGGGT | 0.25 kcal/mol
GAGTCCACGTGTAGTG | 0.22 kcal/mol
AGCGTCACGTGAGGTA | 0.32 kcal/mol
TTTGTCACGTGTGTGC | 0.13 kcal/mol
TTACGCACGTGTATGG | -0.05 kcal/mol
GGGGACACGTGGAGGG | 0.02 kcal/mol

Sequence | relative binding free energy
GGGGCCACGTGCGAGG | -0.04 kcal/mol
TACGTCACGTGGTGTA | -0.16 kcal/mol
ATTGACACGTGGGCAG | -0.26 kcal/mol
GGGGTCACGTGGAGAT | 0.25 kcal/mol
GGTTGCACGTGGAGAC | 0.1 kcal/mol
GAATACACGTGAGGAG | 0.42 kcal/mol
TGTTGCACGTGTTGAC | 0.12 kcal/mol
GGCATCACGTGCGGGG | 0.04 kcal/mol
GCGGGCACGTGTCGGT | -0.07 kcal/mol
CGAGTCACGTGATGTG | 0.14 kcal/mol
TTGATCACGTGTGCGA | 0.11 kcal/mol
GTTGCCACGTGGGTGG | -0.17 kcal/mol
ATAGACACGTGTGAGT | 0.02 kcal/mol
GTTGTCACGTGGGAAT | 0.05 kcal/mol
GGTCACACGTGGTGTA | 0.04 kcal/mol
AAATTCACGTGATGTG | 0.24 kcal/mol
TGGTGCACGTGCATTT | 0.05 kcal/mol
GATGTCACGTGCTGTG | 0.05 kcal/mol
ATGTGCACGTGTGGGT | 0.09 kcal/mol
AAACTCACGTGGGATG | 0.21 kcal/mol
TTACACACGTGGTAGT | -0.05 kcal/mol
CTCATCACGTGTTGGG | 0.06 kcal/mol
TTGCGCACGTGGGCCA | -0.16 kcal/mol
GGATCCACGTGGCGGT | 0.14 kcal/mol
TGTTGCACGTGACCTT | 0.02 kcal/mol

Sequence | relative binding free energy
TCAGGCACGTGTCGGG | -0.03 kcal/mol
CTGAGCACGTGTGTGC | -0.1 kcal/mol
TTGGCCACGTGTAATT | 0.01 kcal/mol
TGAAGCACGTGGAAGT | 0.13 kcal/mol
AGGGTCACGTGGCGGG | -0.02 kcal/mol
TGATTCACGTGTGTTC | 0.19 kcal/mol
TGGATCACGTGGTAGT | 0.07 kcal/mol
TCTTACACGTGGTGTA | 0.02 kcal/mol
GTATACACGTGCTTTG | -0.09 kcal/mol
ACTGGCACGTGGGTCT | -0.16 kcal/mol
CGGGGCACGTGCCTGG | -0.27 kcal/mol
TTGGACACGTGTTGTG | 0.11 kcal/mol
TTGGACACGTGTTAGA | 0.1 kcal/mol
TGGGGCACGTGATACT | -0.11 kcal/mol
TATTGCACGTGGGGCA | -0.19 kcal/mol
TTTTTCACGTGGCTTA | 0.14 kcal/mol
ATTAGCACGTGTTTTA | -0.03 kcal/mol
ACTGTCACGTGGTGCT | 0.02 kcal/mol
GGTAGCACGTGTAGCG | 0.09 kcal/mol
ATGCGCACGTGGGGGA | -0.19 kcal/mol
TCGCGCACGTGTTGTG | -0.2 kcal/mol
AAAGGCACGTGCTGTG | -0.23 kcal/mol
TGGATCACGTGCAGGG | 0.08 kcal/mol
ACGTTCACGTGGGTTG | 0.16 kcal/mol
TACTGCACGTGTGGGG | -0.02 kcal/mol

Sequence | relative binding free energy
TACGGCACGTGTTGTT | -0.05 kcal/mol
TTTTTCACGTGCGAGT | 0.26 kcal/mol
CGAGACACGTGGGCGG | -0.03 kcal/mol
TTAAACACGTGTTGTC | -0.02 kcal/mol
ATTTGCACGTGACGGG | 0.16 kcal/mol
TCTGTCACGTGCGTTG | -0.08 kcal/mol
TATTCCACGTGGTGCG | -0.01 kcal/mol
CGTGGCACGTGTAGGT | -0.13 kcal/mol
TAGGCCACGTGAATGT | 0.26 kcal/mol
GGAAGCACGTGGGTTA | -0.14 kcal/mol
TAGACCACGTGAGGTT | 0.29 kcal/mol
ATGTGCACGTGGGTAT | -0.21 kcal/mol
GGAGTCACGTGTATTA | 0.15 kcal/mol
GTAAGCACGTGGTTGC | 0 kcal/mol
CGCGTCACGTGGAGTT | 0.2 kcal/mol
GTTGCCACGTGGACGG | 0.05 kcal/mol
CATAACACGTGTGTGT | -0.02 kcal/mol
AATTTCACGTGTGGGG | 0.25 kcal/mol
GGTCTCACGTGTTCGT | 0.21 kcal/mol
TTGTTCACGTGGAGGA | 0.24 kcal/mol
TTAACCACGTGGGTAT | -0.14 kcal/mol
